The source gives no read counts; variants with many changes may rest on few reads.

The source of these data is the RNAGym collection of RNA variant scans (doi:10.7554/elife.90254).

To fix the notation:
B1: OR4K15 (parent)
chain: GUUAACGGUCAUAGGCCAUGGAAACUAGGAGCACCAUUUCGCUGCCAGUGAAGAAAUGAACAAAGAAAAUCUGGGCCAGGCAGGCAUCAAAAGAAAUAGUCUUGCGCUCAACCAGAAAGUCUGUAAUCAUUUUAAGGGUA

Variants of B1 are the subject of the series. Briefly: self-cleavage, relative activity (ratio to wild type); higher = more cleavage; in vitro, sequencing; the parent is a self-cleaving ribozyme.
Regarding GUUAACGGUCAUAGGCCAUGGGAACCAGGAGCACCAUUUCGCUGCCAGUGAAGAAAUGAACGAAGAAAAUCUGGGCCCGGCAGGCAUCAAAAGAAAUAGUCUUGCGCUCAACCAGAAAGUCUGUAAUCAUUUUAUGGGUA, the self-cleavage amounted to 0.19.

Consider GUUAACGGUCAUAGGCCAUGGGAACUAGGAGCACCAUAUCGCUGCCAGUGAAGAAAUGAACAAAGAAGAUCUGGGCCAGGCAGGCAUCAAAAGAAAUAGUCUUGCGCUCAACCAGAAAGUCUGUAAUCAUUUUAAGGGUA, for which the self-cleavage is 1.11.

Consider GUUAACGGUCAUAGGCCAUGGGAACUAGGAGCACCAUUUCUCUGCCAGUGAAGAAAUGAACAAAGAAAAUCUGGGCCAGGCAGGCAUCAAAAGAAAUAGUCUUGCGCUCAACCAGGAAGUCUGUAAUCAUUUUAAGGGUA, for which the self-cleavage worked out at 0.84.

As to GUUAACGGUCAUAGGCCAUGGGAACUAGGAGCACCAUCUCGCUGCCAGUGAAGAAAGGAACAAGGAAAAUCUGGGCCAGGCAGGCAUCAAAAGAAAUAGUCUUGCGCUCAACCAGAAAGUCUGUAAUCAUUUUAAGGGUA, the self-cleavage worked out at 1.78.

GUUAACGGUCAUAGGCCAUGGGAACAAGGAGCACCAUUUCGCUGCCAGUGAAGAAAUGAACAAAGAAAAUCUGGGCCAGGCAGGCAUCAAAAGAAAUAGUCUUGCGCUCAACCAGAAAGUCCGUAAUCAUUCUAAGGGUA: the self-cleavage stood at 0.57.

As for GUUAACGGUCAUAGGCCAUGGGAACUAGGAGCACCACUUCGCAGCCAGUGAAGAAAUGAACAAAGAAAAUCUGGGCCAGGCAGGCAUCAAAAGAAAUAGUCUUGCGCUCAACCAGAAAGUCUGUAAUCAUUUUAAGGGUA, the self-cleavage came to 1.54.

On to GUUAACGGUCAUAGGCCAUGGGAACUAGGAGCACCACUUCGCUGCCAGUGAAGAAAUGAACAAAGAAGAUCUGGGCCAGGCAGGCAUCAAAAGAAAUAGUCUUGCGCUCAACCAGAAAGUCUGUAGUCAUUUUAAGGGUA, for which the self-cleavage worked out at 1.22.

As for GUUAACGGUCAUAGGCCAUGGGAACUAGGAGCACCAUUACGCUGCCAGCGAAGAAAUGAACAAAGAAAAUCUGGGCCAGGCAGGCAUCAAAAGAAAUAGUCUCGCGCUCAACCAGAAAGUCUGUAAUCAUUUUAAGGGUA, the self-cleavage stood at 0.95.

Regarding GUUAACGGUCAUAGGCCAUGGGAACUAGGAGCACCAUUUCGCCGCCAGUGAAGAAAUGAACAAAGAAAAUCUGGGCCAGGCAGGCGUCAAAAGAAAUAGUCUUGCGCUCAACCAGAAAGUCUGUAAUCAUUUUAAGGGUA, the self-cleavage amounted to 0.94.

Regarding GUUAACGGUCAUAGGCCAUGGGAACUAGGAGCACCAUCUCGCAGCCAGUGAAGAGAUGAACAAAGAAAAUCUGGGCCAGGCAGGCAUCAAAAGAAAUAGUCUUGCGCUCAACCAGAAAGUCUGUAAUCACUUUAAGGGUA, the self-cleavage came out at 0.66.

GUUAACGGUCAUAGGCCAUGGGAACUAGGAGCACCACUUCGCUGCCAGUGGAGAAAUGGACAAAGAAAAUCUGGGCCAGGCAGGCAUCAAAAGAAAUAGUCUUGCGCUCAACCAGAAAGUCUGUAAUCAUUUUAAGGGUG: the self-cleavage worked out at 0.97.

For GUUAACGGUCAUAGGCCAUGGGAACUAGGAGCACCAUCUCGCUGCCAGUGAAGAAAUGAACAAAGAAAAUCUGGGCCAGGCAGGCAUCAAAAGAAAUAGUCUUGCGCUCAACUAGAAAGUCUGUAAUCAUUUUAAGGGUA, the self-cleavage came out at 0.15.

As for GUUAACGGUCAUAGGCCAUGGGAACUAGGAGCACCAAUUCGCUGCCGGUGAAGGAAUGAACAAAGAAAAUCUGAGCCAGGCAGGCAUCAAAAGAAAUAGUCUUGCGCUCAACCAGAAAGUCUGUAAUCAUUUUAGGGGCA, the self-cleavage came out at 0.24.

As to GUUAACGGUCAUAGGCCAUGGGAACCAGGAGCACCAUUUCGCAGCCAGUGAAGAAAUGAACAAAGAAAAUCUGGGCCAGGCAGGCAUCAAAAGAAAUAGUCCUGCGCUCAACCAGAAAGUCUGUAAUCAUUUUAAGGGUA, the self-cleavage amounted to 2.25.

Turning to GUUAACGGUCAUAGGCCAUGGGAACUAGGAGCACCACUUCGCUGCCAGUGAAGAAAUGAACAAAGAAAAUCUGGGCCAGGCAGGCAUCAAAGGAAAUAGUCUUGCUCUCAACCAGAAAGUCUGUAAUCAUUUUAAGGGUA, the self-cleavage was determined as 0.03.

With GUUAACGGUCAUAGGCCAUGGGAACUAGGAGCACCACUCCGCUGCCAGUGAAGAAAUGAACAAAGAAAAUCUGGGCCAGGCAGGCAUCAAAAGAAAUAGUCUUGCGCUCAACCAGUAGGUCUGUAAUCAUUUUAAGGGUA, the self-cleavage was 0.11.

As to GUUAACGGUCAUAGGCCAUGGGAACUAGGAGCACCAUUUCGCAGCCAGUGAAGAAAUGAACAAGGAAAAUCUGGGCCAGGCAGGCAUCAAAAGAAAUAGUCUUGCGCUCAACCAGAAAGCCUGUAAUCAUUUUAAGGGUA, the self-cleavage came out at 1.88.

Turning to GUUAACGGUCAUAGGCCAUGGGAACUAGGAGCACCAAUUCGCUGCCAGUGAAGAGAUGAGCAAAGAAAAUCUGGGCCAGGCAGGCAUCAAAAGAAAUAGUCUUGCGCUCAACCAGAAAGUCUGUAAUCAUUUUGAGGGUA, the self-cleavage is 0.8.

As for GUUAACGGUCAUAGGCCAUGGGAACUAGGAGCACCACUUCGCUGCCAGUGAAGAAAUGAACAAAGAAAAUCUGGGCCUGGCAGGCAUCAAAAGAAAUAGUCUUGCGCUCAACCAGAUAGUCUGUAAUCAUUUUAAGGGUA, the self-cleavage amounted to 0.12.

With GUUAACGGUCAUAGGCCAUGGGAACUAGGAGCACCAUUUCGCCGCCAGUGAAGAAAUGAACAAGGAAGAUCUGGGCCAGGCAGGCAUCAAAAGAAAUAGUCUUGCGCUCAACCAGAAAGUCUGUAAUCAUUUUAAGGGUA, the self-cleavage is 1.55.

For GUUAACGGUCAUAGGCCAUGGGAACUAGGAGCACCAUUCCGCUGCCAGUGAAGAAAUGAACAAAGAAAAUCUGGGCCAGGCAGGCAUCAAAAGAAAUAGUCUUGCGCCCAACCAGAAAGUCUGUGAUCAUUUUAAGGGUA, the self-cleavage was 0.

Take GUUAACGGUCAUAGGCCAUGGGAACUAGGAGCACCAUUACGCUGCCAGUGAAGAAAUGAACAAAGAAAAUCUGGGCCAGGCAGGCAUCAAAAGAAAUAGUCUUGGGCUCAACCAGAAAGUCUGUAAUCAUUUUAAGGGUA: the self-cleavage amounted to 0.04.

Turning to GUUAACGGUCAUAGGCCAUGGGAACCAGGAGCACCAUUUCGCUGCCAGUGAAGAAAUGAACAAAGAAAAUCUGGGCCAGGCAGGCAUCAAAUGGAACAGUCUUGCGCUCAACCAGAAGGUCUGUAAUCAUUUUAAGGGUA, the self-cleavage came out at 0.41.

Turning to GUUAACGGUCAUAGGCCAUGGGAACUAGGAGCACCAUUUCGCAGCCAGUGAAGAAAUGAACAAAGAAAAUCUGGGCCAGGCAGGCAUCAAAAGAAAUAGUCUUGCGCUCAACCAGAAAGUCUGUAAUCAUUUUAGGGGUA, the self-cleavage turned out to be 2.13.

On to GUUAACGGUCAUAGGCCAUGGGAACUAGGAGCACCAUAUCGCUGCCAGUGAAGAAAUGAACAAAGAAAAUCUGGGCCAGGCAGGCAUCAAAGGAAAUAGUCCUGCGCUCAACCAGAGAGUCUGUAAUCAUUUUAAGGGUA, for which the self-cleavage turned out to be 2.94.

For the variant GUUAACGGUCAUAGGCCAUGGGAACUAGGAGCACCAUUCCGCUGCCAGUGGAGAAAUGAACAAAGAAAAUCUGGGCCAGGCAGGCAUCAAAAGAAAUAGUCUUGCGCUCAACCAGAAAGUCCGUAAUCAUUUUAAGGGUA, the self-cleavage came to 0.89.

In the case of GUUAACGGUCAUAGGCCAUGGGAACUAGGAGCACCAUUUCGCUACCAGUGAAGAAAUGAACAAAGAAGAUCUGGGCCAGGCAGGCAUCAAAAGAAAUAGUCUUGCGCUCAACCAGAAAGUCUGUAAUCAUUUUAAGGGUA, the self-cleavage was 0.42.

Consider GUUAACGGUCAUAGGCCAUGGGAACUAGGAGCACCAUUCCGCUGCCAGUGAAGAAAUGAACAAAGAAAAUCAGGGCCAGGCAGGCAUCAAAAGAAAUAGCCUUGCGCUCAACCAGAAAGUCUGUAAUCAUUUUAAGGGUA, for which the self-cleavage stood at 0.78.

As for GUUAACGGUCAUAGGCCAUGGGAACUAGGAGCACCAUUUCGCCGCCAGUGAAGAAAUGAACAAAGAAAAUCUGGGCCAGGCAGGCAUCAAAAGAAGUAGUCUUGCGCUCAACCGGAAAGUCUGUAAUCAUUUUAAGGGUA, the self-cleavage is 0.5.

With GUUAACGGUCAUAGGCCAUGGGAACUAGGAGCACCAUUUCGCUGCCAGUGAAGAAAUGAACAAAGAAAAUCUGGGCCAGGCAGGCAUCAAAAGAAAUAGUCUUGCUCUCAACCAGAAAGCCUGUAAUCGUUUUAAGGGUA, the self-cleavage is 0.

Regarding GUUAACGGUCAUAGGCCAUGGGAACUAGGAGCACCAUUUCGCUGCCAGUGAAGAAAUUAACAAAGAAAAUCCGGGCCAGGCAGGCAUCAAAAGAAAUAGUCUUGCGCUCCACCAGAAGGUCUGUAAUCAUUUUAAGGGUA, the self-cleavage is 0.

Take GUUAACGGUCAUAGGCCAUGGGAACUAGGAGCACCAUCUCGCUGCCAGUGAAGAAAUGAACAAAGAAAAUCUGGGCCAGGCAGGCAUCAAAAGAAAUAGUCCUGCGCUCAACCAGAAAGUCUGUAAUCAUUUUAAGGGUA: the self-cleavage was 2.25.

GUUAACGGUCAUAGGCCAUGGGAACUAGGAGCACCAUUUCGCCGCCGGUGAAGAAAAGAACAAAGAAGAUCUGGGCCAGGCAGGCAUCAAAAGAAAUAGUCAUGCGCUCAACCAGAAGGUCUGUAAUCAUUUUAAGGGUA: the self-cleavage is 0.07.

For GUUAACGGUCAUAGGCCAUGGGAACUAGGAGCACCAUCCCGCUGCCAGUGAAGAAAUGAACAAAGAAAAUCUGGGCCAGGCAGGCAUCAAAAGAAAUAGUCUUGCGCUCAACCAGAAAGUCUGUAAUCAUUUUAAGGGUA, the self-cleavage worked out at 0.13.

As to GUUAACGGUCAUAGGCCAUGGGAACUAGGAGCACCAUUUCGCAGCCAGUGAAGAAAUGAACAAAGAAAAUCUGGGCCAGGCAGGCAUCAAAAGAAAUAGUCUUGCGCUCAACCAGGAAGCCUGUAAUCAUUUUAUGGGUA, the self-cleavage amounted to 0.46.

In the case of GUUAACGGUCAUAGGCCAUGGGAACUAGGAGCACCAUUUCGCCGCCAGUGAAGAAAUGGACAAAGAGAAUCUGGGCCAGGCAGGCAUCAAAAGAAAUAGUCUUGCGCUCAACCAGAAAGUCUGUAAUCAUUUUAAGGGUA, the self-cleavage worked out at 0.76.

Consider GUUAACGGUCAUAGGCCAUGGGAACUAGGAGCACCAUUUCGCCGCCAGUGAAGAAAUGAACAAAGAAAAUCUGGGCCGGGCAGGCAUCAAAAGAAAUAGUCUUGCGCUCAACCAGAAAGUCUGUAAUCAUUUUAAGGGUA, for which the self-cleavage was determined as 0.34.

Consider GUUAACGGUCAUAGGCCAUGGGAACUAGGAGCACCAUUUCGCUGCCAGUGAAGAAAUAAACAAAGAAAAUCUGGGCCAGGCAGGCAUCAAAAGAAAUAGUCUUGCGCUCAACCCGAAAGUCUGUAAUCAUUUUAAGGGUA, for which the self-cleavage worked out at 0.05.

As to GUUAACGGUCAUAGGCCAUGGGAACUAGGAGCACCACUUCGCUGCCAGUGAAGAAAUGAACUAAGAAAAUCUGGGCCAGGCAGGCAUCAAAAGAAAUAGUCUUGCGCUCAACCAGAAAGUCUGUAAUCAUUUUAAGGGUA, the self-cleavage came to 1.78.

Consider GUUAACGGUCAUAGGCCAUGGGAACUAGGAGCACCAUUACGCUGCCAGUGAAGAAAUGAACAAAGAAAAUCUGGGCCAGGCAGGCAUCAAAAGAAAUAGUCUUGCGCUCAACCAGAGAGUCUGUAAUCAUUUUAAGGGUG, for which the self-cleavage amounted to 1.74.

Take GUUAACGGUCAUAGGCCAUGGGAACUAGGAGCACCAUCUCGCUGCCAGUGGAGAAAUGAACAAAGAAAAUCUGGGCCAGGCAGGCAUCAAAAGAAAUAGCCUUGCGCUCAACCAGAAAGUCUGUAAUCAUUUUAAGGGUA: the self-cleavage stood at 1.47.
